Experimental data published in the supplement of paper PMC4967469.

Assays:
Test in all cases: Viability of human cancer cell lines after 72 h of drug (GDSC screen)
AR-42 = compound: CC(C)[C@H](C(=O)Nc1ccc(C(=O)NO)cc1)c1ccccc1 [AR-42]; conditions: top dose 5.12 µM; top dose inferred
Experimental: (§1)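 Human cancer cell lines in 384-well plates, medium with 10% serum, drug for 72 h over a 256-fold dose range (nine 2-fold or five 4-fold steps up to the top dose). Adherent lines were fixed and stained with the nucleic acid dye Syto60, suspension lines read with resazurin; signal relative to control wells, capped at 0 and 100%. One two-parameter sigmoid per drug and line, fitted in a mixed model over all curves with the slope shared within a line.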

CEP-701 = compound: C[C@]12O[C@H](C[C@]1(O)CO)n1c3ccccc3c3c4c(c5c6ccccc6n2c5c31)CNC4=O [CEP-701]; conditions: top dose 2 µM; top dose inferred
Experimental: as §1

Pazopanib = compound: Cc1ccc(Nc2nccc(N(C)c3ccc4c(C)n(C)nc4c3)n2)cc1S(N)(=O)=O [Pazopanib]; conditions: top dose 8 µM
Experimental: as §1

SB 216763 = compound: Cn1cc(C2=C(c3ccc(Cl)cc3Cl)C(=O)NC2=O)c2ccccc21 [SB 216763]; conditions: top dose 10 µM; top dose inferred
Experimental: as §1

GDC0941 = compound: CS(=O)(=O)N1CCN(Cc2cc3nc(-c4cccc5[nH]ncc45)nc(N4CCOCC4)c3s2)CC1 [GDC0941]; conditions: top dose 4 µM; screen: GDSC drug entry 1527; top dose inferred
Experimental: as §1

Cell Line | AUC (AR-42) | IC50 (AR-42) | AUC (CEP-701) | IC50 (CEP-701) | AUC (Pazopanib) | IC50 (Pazopanib) | AUC (SB 216763) | IC50 (SB 216763) | AUC (GDC0941) | IC50 (GDC0941)
201T (lung adenocarcinoma, adherent) | 0.777 | 2600 nM | 0.705 | 553 nM | 0.868 | > 8000 nM | 0.977 | > 10000 nM |  | 
A427 (non-small cell lung carcinoma, adherent) | 0.865 | 4610 nM | 0.287 | 31.1 nM | 0.743 | 2500 nM | 0.981 | > 10000 nM |  | 
A2058 (melanoma, adherent) | 0.882 | 4410 nM | 0.799 | 842 nM | 0.927 | > 8000 nM | 0.99 | > 10000 nM |  | 
ACHN (kidney, adherent) | 0.675 | 1060 nM | 0.446 | 87 nM | 0.874 | > 8000 nM | 0.983 | > 10000 nM |  | 
AGS (stomach, adherent) | 0.53 | 383 nM | 0.224 | 21.9 nM | 0.989 | > 8000 nM | 0.989 | > 10000 nM |  | 
AU565 (breast, adherent) | 0.518 | 359 nM | 0.814 | 1250 nM | 0.889 | > 8000 nM | 0.965 | > 10000 nM |  | 
CAL-33 (head and neck, adherent) | 0.7 | 1170 nM | 0.653 | 331 nM | 0.961 | > 8000 nM | 0.986 | > 10000 nM |  | 
CAL-51 (breast, adherent) | 0.943 | > 5120 nM | 0.624 | 260 nM | 0.896 | 7520 nM | 0.955 | > 10000 nM |  | 
CAL-85-1 (breast, adherent) | 0.738 | 1890 nM | 0.898 | > 2000 nM | 0.854 | > 8000 nM | 0.965 | > 10000 nM |  | 
CHP-212 (neuroblastoma, adherent) | 0.238 | 60.1 nM | 0.482 | 112 nM | 0.897 | > 8000 nM | 0.966 | > 10000 nM |  | 
CTB-1 (B-cell lymphoma, suspension) |  |  | 0.476 | 105 nM | 0.926 | > 8000 nM | 0.977 | > 10000 nM | 0.829 | 3860 nM
Calu-3 (lung adenocarcinoma, adherent) | 0.776 | 2600 nM | 0.881 | > 2000 nM | 0.828 | 6750 nM | 0.983 | > 10000 nM |  | 
DU-145 (prostate, adherent) |  |  | 0.838 | 1580 nM | 0.899 | > 8000 nM | 0.833 | 7500 nM | 0.546 | 338 nM
G-292 Clone A141B1 (osteosarcoma, adherent) | 0.869 | > 5120 nM | 0.816 | > 2000 nM | 0.755 | 4380 nM | 0.893 | > 10000 nM |  | 
H290 (mesothelioma, adherent) |  |  | 0.35 | 50 nM | 0.979 | > 8000 nM | 0.989 | > 10000 nM | 0.834 | 2310 nM
H2795 (mesothelioma, adherent) | 0.734 | 1470 nM | 0.39 | 62.6 nM | 0.911 | > 8000 nM | 0.987 | > 10000 nM |  | 
HCC70 (breast, adherent) | 0.641 | 777 nM | 0.86 | 1620 nM | 0.937 | > 8000 nM | 0.988 | > 10000 nM |  | 
HCC-827 (lung adenocarcinoma, adherent) | 0.627 | 759 nM | 0.751 | 750 nM | 0.89 | > 8000 nM | 0.96 | > 10000 nM |  | 
HCT-15 (large intestine, adherent) | 0.725 | 1460 nM | 0.421 | 74.9 nM | 0.956 | > 8000 nM | 0.987 | > 10000 nM |  | 
HCT-116 (large intestine, adherent) | 0.396 | 169 nM | 0.514 |  | 0.986 | > 8000 nM | 0.965 | > 10000 nM |  | 
HL-60 (acute myeloid leukaemia, suspension) | 0.341 | 122 nM | 0.531 | 151 nM | 0.979 | > 8000 nM | 0.99 | > 10000 nM |  | 
Hs-578-T (breast, adherent) | 0.815 | 3030 nM | 0.78 | 876 nM | 0.889 | > 8000 nM | 0.98 | > 10000 nM |  | 
HuP-T3 (pancreas, adherent) | 0.626 | 772 nM | 0.709 | 563 nM | 0.956 | > 8000 nM | 0.977 | > 10000 nM |  | 
HuP-T4 (pancreas, adherent) | 0.56 | 472 nM | 0.781 | 879 nM | 0.973 | > 8000 nM | 0.971 | > 10000 nM |  | 
IGR-1 (melanoma, adherent) | 0.509 | 338 nM | 0.834 | 1080 nM | 0.97 | > 8000 nM | 0.989 | > 10000 nM |  | 

Cell Line | AUC (AR-42) | IC50 (AR-42) | AUC (CEP-701) | IC50 (CEP-701) | AUC (Pazopanib) | IC50 (Pazopanib) | AUC (SB 216763) | IC50 (SB 216763) | AUC (GDC0941) | IC50 (GDC0941)
JHU-029 (head and neck, adherent) |  |  | 0.733 | 681 nM | 0.9 | > 8000 nM | 0.979 | > 10000 nM | 0.668 | 820 nM
KARPAS-620 (haematopoietic neoplasm, suspension) | 0.319 | 108 nM | 0.61 | 239 nM | 0.991 | > 8000 nM | 0.991 | > 10000 nM |  | 
KP-1N (pancreas, adherent) |  |  | 0.956 | > 2000 nM | 0.904 | > 8000 nM | 0.986 | > 10000 nM | 0.733 | 1200 nM
KYSE-140 (oesophagus, adherent) | 0.983 | > 5120 nM | 0.692 | 467 nM | 0.971 | > 8000 nM | 0.941 | > 10000 nM |  | 
KYSE-410 (oesophagus, adherent) | 0.755 | 1840 nM | 0.687 | 435 nM | 0.961 | > 8000 nM | 0.971 | > 10000 nM |  | 
LP-1 (myeloma, suspension) | 0.374 | 153 nM | 0.993 | > 2000 nM | 0.99 | > 8000 nM | 0.993 | > 10000 nM |  | 
MCF7 (breast, adherent) | 0.924 | > 5120 nM | 0.816 | 1160 nM | 0.925 | > 8000 nM | 0.917 | > 10000 nM |  | 
MDA-MB-361 (breast, adherent) | 0.453 | 238 nM | 0.741 | 608 nM | 0.894 | > 8000 nM | 0.987 | > 10000 nM |  | 
MDA-MB-453 (breast, adherent) | 0.254 | 57.7 nM | 0.84 | 1610 nM | 0.958 | > 8000 nM | 0.982 | > 10000 nM |  | 
MDA-MB-468 (breast, adherent) | 0.817 | 2740 nM | 0.716 | 495 nM | 0.955 | > 8000 nM | 0.988 | > 10000 nM |  | 
MG-63 (osteosarcoma, adherent) | 0.984 | > 5120 nM | 0.689 | 465 nM | 0.583 | 875 nM | 0.973 | > 10000 nM |  | 
RCC-JF (kidney, adherent) | 0.452 | 232 nM | 0.431 | 79.1 nM |  |  | 0.976 | > 10000 nM | 0.676 | 828 nM
RCC-JW (kidney, adherent) | 0.617 | 676 nM | 0.632 | 291 nM |  |  | 0.985 | > 10000 nM | 0.625 | 559 nM
RCC-MF (kidney, adherent) | 0.454 | 231 nM | 0.617 | 289 nM |  |  | 0.927 | > 10000 nM | 0.741 | 1530 nM
RVH-421 (melanoma, adherent) | 0.764 | 2560 nM | 0.597 | 254 nM |  |  | 0.947 | > 10000 nM | 0.786 | 2460 nM
SCC90 (head and neck, adherent) |  |  | 0.826 | 1980 nM | 0.954 | > 8000 nM | 0.981 | > 10000 nM | 0.864 | > 4000 nM
SNG-M (endometrium, adherent) |  |  | 0.674 | 376 nM | 0.8 | 3760 nM | 0.983 | > 10000 nM | 0.685 | 811 nM
SNU-61 (large intestine, adherent) | 0.347 | 105 nM | 0.91 | > 2000 nM |  |  | 0.985 | > 10000 nM | 0.947 | > 4000 nM
STS-0421 (soft tissue, adherent) |  |  | 0.605 | 256 nM | 0.542 | 663 nM | 0.983 | > 10000 nM | 0.671 | 815 nM
SW620 (large intestine, adherent) |  |  | 0.643 | 294 nM | 0.99 | > 8000 nM | 0.985 | > 10000 nM | 0.946 | > 4000 nM
SW626 (ovary, adherent) |  |  | 0.804 | 1230 nM | 0.923 | > 8000 nM | 0.982 | > 10000 nM | 0.828 | 3120 nM
UWB1.289 (ovary, adherent) | 0.641 | 957 nM | 0.833 | > 2000 nM |  |  | 0.969 | > 10000 nM | 0.795 | 3030 nM
YH-13 (glioma, adherent) | 0.749 | 1750 nM | 0.545 | 167 nM |  |  | 0.921 | > 10000 nM | 0.636 | 610 nM
YKG-1 (glioma, adherent) | 0.648 | 827 nM | 0.599 | 235 nM |  |  | 0.954 | > 10000 nM | 0.848 | 

IC50 is the fitted dose that halves viability relative to control wells, and lower means more sensitive; a limit (>, <) means that the fit lies beyond the doses tested. The AUC spans the tested range (256-fold, ending at the top dose) of the same fit; values near 1 show little effect. For part of these data: A top dose marked as inferred was calculated from the reported fits. For part of these data: Where an entry number is given, a second screen of the drug exists; the two often differ.
